Hit rate of the full screen: of about 310,000 compounds, about 2,200 (0.71%) showed an effect of 50% or more. The effect is printed as a negative number. This is one part of the list.

Sequence of human ether-à-go-go-related gene (hERG) potassium channel (Q12809 whole entry, looked up): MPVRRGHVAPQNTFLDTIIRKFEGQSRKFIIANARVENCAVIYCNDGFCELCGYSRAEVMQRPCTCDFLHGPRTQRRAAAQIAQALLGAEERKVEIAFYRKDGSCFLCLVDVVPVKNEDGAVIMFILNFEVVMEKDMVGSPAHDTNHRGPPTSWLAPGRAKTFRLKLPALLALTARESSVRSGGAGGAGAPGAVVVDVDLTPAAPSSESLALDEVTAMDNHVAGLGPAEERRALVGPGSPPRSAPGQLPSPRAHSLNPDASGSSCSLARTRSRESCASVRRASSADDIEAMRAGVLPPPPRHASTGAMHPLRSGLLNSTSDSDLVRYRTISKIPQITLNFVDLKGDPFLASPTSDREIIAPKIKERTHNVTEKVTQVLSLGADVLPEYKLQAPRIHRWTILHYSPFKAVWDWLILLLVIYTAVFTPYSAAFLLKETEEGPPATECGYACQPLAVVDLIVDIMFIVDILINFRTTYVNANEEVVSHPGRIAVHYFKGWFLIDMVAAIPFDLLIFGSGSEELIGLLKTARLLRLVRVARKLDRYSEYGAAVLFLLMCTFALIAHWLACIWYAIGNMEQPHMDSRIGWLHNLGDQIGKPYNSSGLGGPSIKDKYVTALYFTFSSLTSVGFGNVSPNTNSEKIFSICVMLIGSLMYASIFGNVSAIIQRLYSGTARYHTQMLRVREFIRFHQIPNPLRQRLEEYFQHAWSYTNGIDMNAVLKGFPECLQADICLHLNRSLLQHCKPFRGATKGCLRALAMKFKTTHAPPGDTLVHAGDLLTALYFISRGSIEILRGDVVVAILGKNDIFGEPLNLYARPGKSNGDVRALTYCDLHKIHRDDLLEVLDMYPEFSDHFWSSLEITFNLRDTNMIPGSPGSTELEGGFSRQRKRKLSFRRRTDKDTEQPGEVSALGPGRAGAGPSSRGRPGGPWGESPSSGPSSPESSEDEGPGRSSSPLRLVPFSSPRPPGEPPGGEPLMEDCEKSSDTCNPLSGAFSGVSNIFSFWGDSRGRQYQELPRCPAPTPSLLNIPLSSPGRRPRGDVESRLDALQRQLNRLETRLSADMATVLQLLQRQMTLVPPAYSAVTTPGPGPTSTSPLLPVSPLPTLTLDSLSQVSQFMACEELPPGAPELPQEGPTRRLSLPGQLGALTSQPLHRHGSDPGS

The assay addresses human ether-à-go-go-related gene (hERG) potassium channel (human, UniProt Q12809). Kind of assay: primary screen, population patch clamp on CHO cells stably expressing hERG.
Regarding `Cc1cc2ncn(C(=O)N3CCCCCC3)c2cc1C`, the “hERG current change (%, negative = inhibition) at 1uM” value came out at 12.1%.
The figure for `Cc1ccccc1NCc1ccccc1O.Cl` is 8.56%; for `COc1ccc(C(=O)NCCCNC(=O)c2cc3ccccc3[nH]2)cc1OC` it is 9.21%; for `COc1ccccc1CNC(=O)C/C(C)=N/NC(=O)Cc1ccc(OC)c(OC)c1` it is 8.26%.
For `COc1ccc(C(=O)c2sc(Nc3cccc(OC)c3)c(C(=O)Nc3cccc(C)c3C)c2N)cc1`, the “hERG current change (%, negative = inhibition) at 1uM” value was -5.14%.
Regarding `Cc1nc(SCC(=O)O)n[nH]1`, the “hERG current change (%, negative = inhibition) at 1uM” value came to 11.7%.
On to `CN1CCN(CC(=O)N(Cc2c(C#N)c3ccccc3n2C)c2ccccc2)CC1`, for which the “hERG current change (%, negative = inhibition) at 1uM” value worked out at 3.1%.
Consider `O=C(NCc1cccc(F)c1)C1CCC(=O)N(CCCN2CCOCC2)C1` (stereo not shown), for which the “hERG current change (%, negative = inhibition) at 1uM” value worked out at 12.3%.
Under `Cc1ccc(S(=O)(=O)N2CCN(S(=O)(=O)N(C)C)CC2)c(C)c1` stands -0.392%; under `O=C(Nc1cccc2ccccc12)/C(=C/c1cccc([N+](=O)[O-])c1)NC(=O)c1cccs1`, -37.8%; under `Cc1cccc(C(=O)OC(C)CN2CCN(C)CC2)c1.Cl` (stereo not shown), 2.27%.
Consider `O=C(O)CC1c2ccccc2S(=O)(=O)N1Cc1ccccc1` (stereo not shown), for which the “hERG current change (%, negative = inhibition) at 1uM” value amounted to 8.96%.
For the compound `N#CCCN(C(=O)COC(=O)c1ccc2ccccc2n1)c1ccccc1`, the “hERG current change (%, negative = inhibition) at 1uM” value came out at 11.8%.
Turning to `CCOC(CNC(=O)C1CCN(S(=O)(=O)c2ccc3nc4c(c(C(=O)O)c3c2)CCCCC4)CC1)OCC`, the “hERG current change (%, negative = inhibition) at 1uM” value is 12.6%.
For `COc1ccccc1NC(=O)C1=C(C)Nc2nnnn2C1c1ccncc1` (stereo not shown), the “hERG current change (%, negative = inhibition) at 1uM” value was -14.4%.
The figure for `Cc1onc(-c2c(Cl)cccc2Cl)c1C(=O)c1ccc(F)cc1` is 17.1%.
In the case of `CCCCNCc1cc(Cl)c(OCCC)c(OCC)c1.Cl`, the “hERG current change (%, negative = inhibition) at 1uM” value was determined as 6.8%.
On to `COc1cccc(CNc2nc(-c3cccnc3)nc3ccccc23)c1`, for which the “hERG current change (%, negative = inhibition) at 1uM” value is reported as 7.15%.
The figure for `O=C1CCc2cc(S(=O)(=O)N3CCC(C(=O)NCCC4=CCCCC4)CC3)ccc2N1` is 5.5%.
Consider `CN(C)C(CNC(=O)c1ccc2nc[nH]c2c1)c1ccccc1` (stereo not shown), for which the “hERG current change (%, negative = inhibition) at 1uM” value worked out at 10.3%.
For `Cc1cc(OCC(=O)c2ccc(Br)cc2)ccc1N1C(=O)CCC1=O`, the “hERG current change (%, negative = inhibition) at 1uM” value is 15.9%.
With `CCc1nc2ccc(C(=O)N3CCN(CC)CC3)cc2nc1CC`, the “hERG current change (%, negative = inhibition) at 1uM” value is on record as 14.2%.
Regarding `Cc1cc(Nc2ccc(C)c(Cl)c2)nc(N2CCOCC2)n1`, the “hERG current change (%, negative = inhibition) at 1uM” value worked out at 3.46%.
In the case of `CC1CN(S(=O)(=O)c2cn(C)c(=O)n(C)c2=O)CC(C)O1` (stereo not shown), the “hERG current change (%, negative = inhibition) at 1uM” value is listed as 9.46%.
With `CCC(=O)Nc1nnc(SCC(=O)Nc2ccc(F)cc2)s1`, the “hERG current change (%, negative = inhibition) at 1uM” value is reported as 10.1%.
In the case of `CC(C)(C)c1ccc(C(=O)NNC(=S)NCc2ccco2)cc1`, the “hERG current change (%, negative = inhibition) at 1uM” value is listed as 11.2%.
Take `CCc1c(C(=O)c2ccc(Cl)cc2)oc2c(C)c3oc(=O)cc(C)c3cc12`: the “hERG current change (%, negative = inhibition) at 1uM” value amounted to 4.83%.
For the compound `CN(C)S(=O)(=O)Nc1cc(Cl)cc(Cl)c1`, the “hERG current change (%, negative = inhibition) at 1uM” value turned out to be 9.9%.
As to `COc1ccc(-c2nc(NC(=O)CCNC(=O)c3ccco3)sc2C)cc1`, the “hERG current change (%, negative = inhibition) at 1uM” value is given as -2.49%.
Turning to `COc1cc(/C=C/c2nc3ccccc3c(=O)n2-c2cccc(O)c2)ccc1O`, the “hERG current change (%, negative = inhibition) at 1uM” value is -4.12%.
Turning to `CCn1c(SCc2nc3ccccc3s2)nnc1-c1ccccc1`, the “hERG current change (%, negative = inhibition) at 1uM” value is 5%.
As for `CCN(Cc1ccccc1)C(=O)CCS(=O)(=O)c1cc2c(cc1Cl)NC(=O)CO2`, the “hERG current change (%, negative = inhibition) at 1uM” value is reported as -6.56%.
With `COc1cc(NC(=O)CSc2ncccc2C(=O)OC(C)C)cc(OC)c1`, the “hERG current change (%, negative = inhibition) at 1uM” value is -1.58%.
With `COC(=O)[C@H](Cc1ccccc1)NC(=O)N1CC(C)OC(C)C1` (stereo partly shown), the “hERG current change (%, negative = inhibition) at 1uM” value was -1.39%.
In the case of `C/C(=N\NC(=O)CNC(=O)c1cccc(F)c1)c1ccc2ccccc2c1`, the “hERG current change (%, negative = inhibition) at 1uM” value is 5.42%.
As for `CN(Cc1cccc(C(F)(F)F)c1)Cc1nc(-c2cnccn2)no1`, the “hERG current change (%, negative = inhibition) at 1uM” value is recorded as 6.64%.
As for `COc1ccc(NC(=O)CN2C(=O)COc3ccc(C)cc32)c(OC)c1`, the “hERG current change (%, negative = inhibition) at 1uM” value stood at 13%.
On to `O=C(O)c1cccc(N/C(=N\S(=O)(=O)c2ccccc2)c2ccccc2)c1`, for which the “hERG current change (%, negative = inhibition) at 1uM” value is 5.12%.
With `COc1ccc(S(=O)(=O)Nc2ccc(Cc3ccncc3)cc2)cc1C`, the “hERG current change (%, negative = inhibition) at 1uM” value was 0.33%.
For the compound `CC(=O)N1CC(C)Sc2ccc(S(=O)(=O)NC3CCCCC3)cc21` (stereo not shown), the “hERG current change (%, negative = inhibition) at 1uM” value is 1.74%.
As for `Cc1ccc(NC(=O)CSc2nc(N)cc(=O)[nH]2)cc1Cl`, the “hERG current change (%, negative = inhibition) at 1uM” value came out at 10.4%.
Take `CCc1ccc(S(=O)(=O)Nc2ccccn2)cc1`: the “hERG current change (%, negative = inhibition) at 1uM” value came to 3.37%.
As for `C/C(=N\NC(=S)NCc1ccccc1)c1ccc(Cl)s1`, the “hERG current change (%, negative = inhibition) at 1uM” value came to 6.96%.
Regarding `COc1cccc(NC(=O)Cn2cc(C=O)c3ccccc32)c1`, the “hERG current change (%, negative = inhibition) at 1uM” value was 15.6%.
Under `Cc1nc2ccccc2c(=O)n1/N=C/c1ccc(O)c(O)c1O` stands 7.68%.
The figure for `Cc1cc(OC(C)C(=O)NCc2ccccn2)c2c(C)c(C)c(=O)oc2c1` (stereo not shown) is 9.68%; for `C/C(=N\OCC(=O)Nn1c(=O)[nH]c2ccccc2c1=O)c1ccccc1` it is 7.94%; for `CCn1c(C(=O)O)c(CC(=O)Nc2cccc(C(F)(F)F)c2)c2ccccc21` it is 10.5%.
Turning to `CC(Sc1nnnn1-c1cccc(F)c1)C(=O)NC1CCCC1` (stereo not shown), the “hERG current change (%, negative = inhibition) at 1uM” value is -0.899%.
For the compound `CC1=CC(=C(C#N)C#N)c2ccccc2N1C`, the “hERG current change (%, negative = inhibition) at 1uM” value is 1.58%.
Take `O=C(NCCc1ccccn1)C1CCCN(S(=O)(=O)Cc2ccccc2)C1` (stereo not shown): the “hERG current change (%, negative = inhibition) at 1uM” value amounted to 13.3%.
For the compound `CCOc1ccc(NC(=O)c2ccc(NC(=S)NC3CC3)cc2)cc1`, the “hERG current change (%, negative = inhibition) at 1uM” value is on record as 8.57%.
In the case of `O=C(/C=C/c1ccc2c(c1)OCO2)NC1CCCC1`, the “hERG current change (%, negative = inhibition) at 1uM” value amounted to 11.4%.
As to `CC(NC(=O)c1ccco1)C(=O)OCc1cccc(Cl)c1` (stereo not shown), the “hERG current change (%, negative = inhibition) at 1uM” value is given as -6.37%.
For `Cc1occc1-c1nnc(SCC(N)=O)o1`, the “hERG current change (%, negative = inhibition) at 1uM” value came out at 12.2%.
The figure for `O=C(CSc1n[nH]c(-c2ccco2)n1)Nc1ccc(Br)cc1` is 11.8%; for `CN1CCN(C(=O)CSc2nnc(COc3ccccc3)o2)CC1` it is 6.98%.
For the compound `COC(=O)c1nc2n(n1)C(c1ccc(OC)c(OC)c1OC)C1=C(CCCC1=O)N2` (stereo not shown), the “hERG current change (%, negative = inhibition) at 1uM” value was 4.78%.
With `N#Cc1cc(C(=O)c2cc(Br)ccc2O)cn(C2CCCCC2)c1=O`, the “hERG current change (%, negative = inhibition) at 1uM” value was found to be 7.54%.
Turning to `CCC(C)c1ccccc1N1CC(C(=O)Nc2cccc(S(=O)(=O)N3CCOCC3)c2)CC1=O` (stereo not shown), the “hERG current change (%, negative = inhibition) at 1uM” value was -18.1%.
Under `Cn1nnc(NC(=S)NC(=O)c2ccccc2)n1` stands 1.53%.
As for `Cc1nnsc1C(=O)Nc1cccc(Cl)c1C`, the “hERG current change (%, negative = inhibition) at 1uM” value worked out at 7.91%.
Under `COc1ccc(Cl)cc1NC(=O)CSc1nc(C)cc(C)n1` stands 4.58%.
Under `CCOc1ccc(CCN2C(=O)c3cccnc3C2=O)cc1OCC` stands 7.23%.
Regarding `COc1cccc(C2=NOC(C(=O)NCc3cccs3)C2)c1` (stereo not shown), the “hERG current change (%, negative = inhibition) at 1uM” value came out at 15.9%.
The figure for `COc1ccccc1Nc1nc(NCCCN(C)C)nc(N)c1[N+](=O)[O-]` is -9.79%; for `CCNc1ccc(C(=O)OCC)cc1NC(=O)c1cccc(N(C)C)c1` it is 10.2%; for `O=C(Nc1ccc2c(c1)nc1n2CCCCC1)c1cc(S(=O)(=O)N2CCOCC2)ccc1Cl` it is 0.302%.
Consider `O=[N+]([O-])c1ccccc1S(=O)(=O)Nc1cccc(-c2ccc(N3CCOCC3)nn2)c1`, for which the “hERG current change (%, negative = inhibition) at 1uM” value was 5.48%.
Under `CN1CCCC(CC2Oc3ccccc3Sc3ccccc32)C1.O=C(O)C(=O)O` (stereo not shown) stands -22.9%.
As to `CCCc1nnc(NC(=O)CN2C(=O)c3ccccc3C2=O)s1`, the “hERG current change (%, negative = inhibition) at 1uM” value was -1.25%.
With `Cc1cccn2cc(CCNC(=O)c3ccco3)nc12`, the “hERG current change (%, negative = inhibition) at 1uM” value is reported as 11.1%.
Consider `CC(Sc1ccc(Cl)cc1)C(=O)NNC(=O)c1csc(N2CCOCC2)n1` (stereo not shown), for which the “hERG current change (%, negative = inhibition) at 1uM” value is listed as 1.95%.
Take `N#Cc1c(C(F)(F)F)cc(C2CC2)nc1N1CCCC1`: the “hERG current change (%, negative = inhibition) at 1uM” value was 18.1%.
Under `NC(=O)C1=C[C@H](c2ccc(C(F)(F)F)cc2)C[C@H](OCCCCO)O1` stands -0.169%; under `CC(NC(=O)COc1ncnc2cc([N+](=O)[O-])ccc12)c1ccccc1` (stereo not shown), 4.53%; under `N#Cc1nc(-c2ccc(F)cc2)oc1N1CCCCC1`, 10.8%.
Consider `Nc1nnc(-c2cccnc2)s1`, for which the “hERG current change (%, negative = inhibition) at 1uM” value is given as -3.67%.
Under `Cc1cc(/C=C2\NC(=O)NC2=O)c(C)n1-c1ccc(N2CCOCC2)cc1` stands 10.3%; under `CSc1cc(CS(=O)(=O)c2ccccc2)nc(-c2ccccc2)n1`, 4.78%.
`CCOC(=O)C(c1ccccc1)C(Nc1ccc(Cl)c(Cl)c1)c1ccccn1` (stereo not shown): the “hERG current change (%, negative = inhibition) at 1uM” value worked out at 10.2%.
Consider `CC(C)C(=O)Nc1cccc(C(=O)NCCc2ccc(S(N)(=O)=O)cc2)c1`, for which the “hERG current change (%, negative = inhibition) at 1uM” value is 8.66%.
For the compound `O=C1C=C(O)CC(c2ccco2)C1` (stereo not shown), the “hERG current change (%, negative = inhibition) at 1uM” value was -0.634%.
Turning to `COc1ccccc1CNC(=O)C(NC(=O)C1CCCCC1)C(C)C` (stereo not shown), the “hERG current change (%, negative = inhibition) at 1uM” value was 13.1%.
Under `Cc1cccc(Cn2c(N(C)CCO)nc3c2c(=O)[nH]c(=O)n3C)c1` stands 4.02%.
The figure for `COc1ccc(N2CCN(C(=O)CNC(=O)Cc3ccc(Cl)cc3)CC2)cc1` is 12.2%; for `COc1ccc(OC)c(CNC(=O)C2CCCN(c3nc4ccccc4o3)C2)c1` (stereo not shown) it is -1.94%; for `CC(C)Oc1cccc(C(=O)NC(=S)Nc2ccc3c4c(cccc24)CC3)c1` it is 7.42%.
Regarding `O=C(NCC1COCCO1)c1ccc2nc(Cc3cccc(Cl)c3)oc2c1` (stereo not shown), the “hERG current change (%, negative = inhibition) at 1uM” value turned out to be 13.1%.
For `Cc1ccc(OCn2c(=O)sc3ccccc32)cc1`, the “hERG current change (%, negative = inhibition) at 1uM” value stood at 7.18%.
Under `O=C(C1CCN(S(=O)(=O)c2cccc([N+](=O)[O-])c2)CC1)N1CCOCC1` stands 10%.

(Values after paper PMC4336329 (PLoS ONE, 2015).)
